{"source": "the supplement of paper PMC12632987", "binders": {"B1": {"name": "GBRAP_150_3906 (protein)", "chain": "DLETALTIASTLIDILEAILDGEFDLLPHAIKLAKALLEEAKEISEEIKKLAEKLLKLLEEAKKLLKEGGKKEEIKKLVEKALELAKKIEELLEKKIKEE"}, "B2": {"name": "GBRAP_160_4134 (protein)", "chain": "KEELEKLIKEIKEITEEAIKLIEGESVENAKTIAKVALGDILLLVSSNEAVSEETEDKIGEIVDEAEKYLDDNPNASVEEIKELLKETTEKVVEILKEER"}, "B3": {"name": "GBRAP_11_2800 (protein)", "chain": "KKEKLEEAAELAEKLAEKLEELIEKGVDDEELREEIRELLEELEKLAKEHLDKGLQKLVEIAKELFEKIDEDPENAEQYAKEALATVRVLEGNILLEIEE"}, "B4": {"name": "GBRAP_128_3521 (protein)", "chain": "SIEEAIKEARETVEKIKNSSVEEAYKIAKEFLEKLKEWSLEEVEAAVEEMEKLLPELSAEKLEAVADAIREQRGEFSPEVARLLAGLQVEALNLAEEKEE"}, "B5": {"name": "GBRAP_35_5588 (protein)", "chain": "EDEELILEELEDQAEATLWALKEEDDETALAMLEAFIRFAKRAIEDLKNNKEALEKIAELIEEVIKAIKEYRSDNPEFQKKLKELEKLLKEAKELIKKNE"}, "B6": {"name": "GBRAP_160_4837 (protein)", "chain": "SEKEKEVEKRFKEVEEFILSLVDEVSVEELANAFDTETGSVILELYEEGVINEEAEDKAMELRDETVEALRAAKDASPEELKKIIKEGIKKIIEAIKALL"}, "B7": {"name": "GBRAP_52_6037 (protein)", "chain": "MREKMREKAEEIVKLVLEGKLEEAEKLIRELVETLSEEELLLLGEELARIAREAPEEELDAILEAAFILADELIEGGYEEVLADEIEARVTRAAVERLER"}, "B8": {"name": "GBRAP_95_7076 (protein)", "chain": "EEDLELLEILADTAIDLYEAGLKEEAARLMKLAIEEAKELGYKVKNKELWTKLLKYFVELALEYFDAEEVEKALEIAKASGAPEEIIEELEKKLEELKKK"}, "B9": {"name": "GBRAP_52_5856 (protein)", "chain": "SAARMRALAEELLALQLAGDEAGLEARIAELVATLSEEEILALLEELAALAKEANPEEAEAILEVAELLADAAEAAGFDEDELSYALAEVAAAAYKQLQK"}, "B10": {"name": "GBRAP_11_2802 (protein)", "chain": "KKEELKKIAKLAEELAKAVEELLKKGVDDEKLLKEIKKLLEELKKLVEKYGDEGLKKLAEIAEELLKKAEADPENKEQYLKELLATARVLAGNVLLEIEE"}, "B11": {"name": "GBRAP_11_2860 (protein)", "chain": "KKEKLKEAAELAKEAAELLEELLERGPDDEELRKKLREALEELEKLLKEYGDKDLIKLAEFAAEDFEKAQEDPENAEEHLRRALAATRVLEGQLLLEIDE"}, "B12": {"name": "GBRAP_52_6166 (protein)", "chain": "AEARAAALADRLVAAVRAGDEAAVRAILEEAAATMNDEELALLLDHVAARVAGLSPEDQERVVEAAIEFEDIAIAAGHDEELLSYHVARVAAAAYDALQA"}, "B13": {"name": "GBRAP_166_4943 (protein)", "chain": "DLEEVKKKLEEEIEEFKKNISKLNDEERNDALIEIGELIREAKEAGMSDEEIVEAIGKVLEAAKEAGFNPANAAGIIINVADLSEELRDKVWEYVDKLKK"}, "B14": {"name": "GBRAP_52_6157 (protein)", "chain": "MEARAEAYANALIAAVKAGDEAAIRALMEEIAATLSEEEIELMMAIVAEKVAGLTPEEQERAVEAALELEDILIAAGHDENIASYNTARVAGAAYDALQA"}, "B15": {"name": "GBRAP_11_2824 (protein)", "chain": "SKAKKEELAKKAEAIAKRLAALIASGAPTEEELEALREEAKALLEEVKKHGTPAEAKLAEILLEEIEKAIADPENREEHLKNALAFAQVLAGQFLLEADE"}, "B16": {"name": "GBRAP_18_5404 (protein)", "chain": "SDETFQAAWAALSPELQDLVAEAAYDALSEEDEEERIEILVDTLVRIAETASPEEVHNALLVLLLSVVSRREEALRIVERFVARRPEMRPVAEAALAELE"}, "B17": {"name": "GBRAP_11_2935 (protein)", "chain": "EKEKLKKAKEYAKKAAELIKKIIEAGKLDEELAKEAKELVEKAAKLAKELGLEEEKKDLELAAELIEEIIKAGKLDKTKAAAAKALVFDVAHELEEELEK"}, "B18": {"name": "GBRAP_74_6518 (protein)", "chain": "MEELLKELEKAAEEGDAEKAVELARKIVKEGDLETIERAARIMVEFVDKHLDELSPEELEKVSEALAELADELMLRGGDPETVKAVAEAAVRAEEKLAAL"}, "B19": {"name": "GBRAP_160_4775 (protein)", "chain": "SEKTEELKKEIKEAAEEIKEAIDTLSPEEALIVVRGETGDIIQTTFELGFDNDELEEKIAEIMDELVKEMEKNKNASPEVKKKIVDEYAKKAIETLEKLS"}, "B20": {"name": "GBRAP_43_5784 (protein)", "chain": "SAELVAGALDTAELLFQEPSVSQEQKVAAAIAAFDLAADEGVADREAIRAVVEAAAASLDKASLERLAAHARELAEAHPELAAVFREAAALLEAAIAALE"}, "B21": {"name": "GBRAP_184_5305 (protein)", "chain": "MVVEVTIEAETAEEAIAQINAAAEQARAAGAKLRLYLLLKNVDVEGFRRIAELIKRLKEEGIIEEAIVEVENDLSEEEIDELIKIADEAGVTLVIALPEE"}, "B22": {"name": "GBRAP_39_5668 (protein)", "chain": "EKEEEMELEISYLEAIAAKELYETGKSLDEAYAEAKKILTAYAKEHPELKELVDELIKLADEKGEEAKLVAIGIAVLIKEGTPLEEIKEKIETAVEYFKS"}, "B23": {"name": "GBRAP_160_4159 (protein)", "chain": "SEEVEKLIKEIDEIFEETKKLIEGESIEQRAVIIAGGMGEIIMLLEESPVVSEEVVDLAVELEDELVETLKANPDLTLEEIKKLIDEVRDKIIAAIKKSA"}, "B24": {"name": "GBRAP_43_5763 (protein)", "chain": "SKELVDGAFDFALLALEEPNIPEETKVKAIIAAFELAADEGYVNPEEVEAVVEKAAETLSAEELKKILKALKEIAKKYPELKETLEKAIKKLEEAIKKKE"}, "B25": {"name": "GBRAP_52_5992 (protein)", "chain": "MREEAKKVAEEAVKLMLEGKEEEAEKLLKEVVETKSEEFLKLVAEELAEMAKKADPETRDAIVEVAIMLEDIALEAGFDEAEADDGLARVAAAAYEALQA"}, "B26": {"name": "GBRAP_43_5771 (protein)", "chain": "SKELVEGALDFALLAAESPEIPEETKVKAIIAAFELAADEGYADRELVLKVVKAAAKNLSAEELKKILEKLKEIAKEHPELKEVFEEAAKILEKAIKEKE"}, "B27": {"name": "GBRAP_83_6975 (protein)", "chain": "AEEIVVAAPADRVEEAVEIAIDLAKEEGKKVTLEILTTPEQRERVLEAVERLLKEVPNIEIVVVLRGATKEEAEELEKELKEIAKELGVNADIEVLIEEP"}, "B28": {"name": "GBRAP_160_4052 (protein)", "chain": "EEGKKELLESVEEAEELILETLREDGVEAAIVVADGEFGSIIMEAAEDENASEELEEELDKIRDELVARLKEARDASLEEQEAIIKEAAEEAKKKIEELY"}, "B29": {"name": "GBRAP_186_5386 (protein)", "chain": "SEEAEKKLDEVIDEAEAKGYRVIVAYLENKSVEETKAAIAREADAVAALAKETGEKYALIVYVTTKKEDIAEIQAYAAELNKKYLAETGVEVRAVVEDSE"}}, "note": "In all, about 4,500 sequences were measured (“median log2 fold change of GCK-ALFA target abundance (FLAG IP / Myc IP barcode read proportion)”: median about 0.078, lowest 2% from about -0.6 on). The list shows a part of the results."}
{"molecular_target": "GABARAP, O95166", "sequence (O95166 whole entry, the tested form may be a part)": "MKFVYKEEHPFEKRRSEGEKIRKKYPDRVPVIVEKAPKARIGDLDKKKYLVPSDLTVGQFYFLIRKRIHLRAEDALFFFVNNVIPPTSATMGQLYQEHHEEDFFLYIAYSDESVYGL", "assay": "median log2 fold change of GCK-ALFA target abundance (FLAG IP / Myc IP barcode read proportion) (log2 ratio); each designed protein is fused to an ALFA-tag nanobody in HEK293 cells to bring the named protein to FLAG-tagged glucokinase (GCK); Myc marks an untargeted standard; higher = target protein stabilised (more abundant)", "settings": "target protein: 3xFLAG-MCP-GCK-ALFA reporter; HEK293 landing pad (RPLP)", "method_in_brief": "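The readout is target abundance, the per-binder median log2 ratio of FLAG to Myc barcode read proportions. It came from HEK293 landing-pad cells carrying a recombined ALFA-nanobody-fused binder library, induced with 2 μg mL^−1 doxycycline and transfected with a plasmid for a FLAG-tagged target and a Myc-tagged standard. After 48 h, lysates were immunoprecipitated with anti-FLAG and anti-Myc, and circular RNA barcodes were reverse transcribed, amplified and sequenced. Each barcode needed a proportion of at least 10^−7 in both replicates and each binder at least 3 barcodes per replicate, a pseudocount of 10^−6 was added, and the replicates were pooled.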"}
{"binder": "B1", "median log2 fold change": -0.555}
{"binder": "B2", "median log2 fold change": -0.336}
{"binder": "B3", "median log2 fold change": 0.203}
{"binder": "B4", "median log2 fold change": 0.363}
{"binder": "B5", "median log2 fold change": -0.0436}
{"binder": "B6", "median log2 fold change": 0.52}
{"binder": "B7", "median log2 fold change": -0.655}
{"binder": "B8", "median log2 fold change": -0.202}
{"binder": "B9", "median log2 fold change": -0.118}
{"binder": "B10", "median log2 fold change": 0.248}
{"binder": "B11", "median log2 fold change": 0.221}
{"binder": "B12", "median log2 fold change": -0.0855}
{"binder": "B13", "median log2 fold change": 0.291}
{"binder": "B14", "median log2 fold change": -0.262}
{"binder": "B15", "median log2 fold change": 0.0218}
{"binder": "B16", "median log2 fold change": -0.414}
{"binder": "B17", "median log2 fold change": 0.441}
{"binder": "B18", "median log2 fold change": 0.127}
{"binder": "B19", "median log2 fold change": 0.23}
{"binder": "B20", "median log2 fold change": 0.247}
{"binder": "B21", "median log2 fold change": -0.0724}
{"binder": "B22", "median log2 fold change": 0.303}
{"binder": "B23", "median log2 fold change": 0.106}
{"binder": "B24", "median log2 fold change": 0.0293}
{"binder": "B25", "median log2 fold change": -0.129}
{"binder": "B26", "median log2 fold change": 0.253}
{"binder": "B27", "median log2 fold change": 0.0242}
{"binder": "B28", "median log2 fold change": -0.0679}
{"binder": "B29", "median log2 fold change": 0.175}
